# Measured values published in the supplement of paper PMC4604168 (melanoma cell lines).
# Some of the results follow. Many values rest on one well or one pass, so single values are uncertain.
# Legend:
# Assay in all cases: cell count relative to DMSO control; melanoma cells; higher = more viable cells
# Settings in all cases: library dose: standard library concentration; 72 h
# G361 = tested on: G361
# IPC-298 = tested on: IPC-298
# IST-MEL1 = tested on: IST-MEL1
# LB2518-MEL = tested on: LB2518-MEL
# LOXIMVI = tested on: LOXIMVI
# MEL-HO = tested on: MEL-HO
# MZ2-MEL = tested on: MZ2-MEL
# MeWo = tested on: MeWo
# RPMI7951 = tested on: RPMI7951
# RVH-421 = tested on: RVH-421
# SkMel28 = tested on: SkMel28
# SkMel2 = tested on: SkMel2
# SkMel30 = tested on: SkMel30
# SkMel5 = tested on: SkMel5
# UACC257 = tested on: UACC257
# UACC62 = tested on: UACC62
# WM115 = tested on: WM115
# WM1716 = tested on: WM1716
# WM1745 = tested on: WM1745
# WM3526 = tested on: WM3526
# 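Also: cells treated in 1,536-well plates, then fixed and DAPI-stained, with nuclei counted from automated high-throughput microscope images.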
Compound,cell count (G361) [%],cell count (IPC-298) [%],cell count (IST-MEL1) [%],cell count (LB2518-MEL) [%],cell count (LOXIMVI) [%],cell count (MEL-HO) [%],cell count (MZ2-MEL) [%],cell count (MeWo) [%],cell count (RPMI7951) [%],cell count (RVH-421) [%],cell count (SkMel28) [%],cell count (SkMel2) [%],cell count (SkMel30) [%],cell count (SkMel5) [%],cell count (UACC257) [%],cell count (UACC62) [%],cell count (WM115) [%],cell count (WM1716) [%],cell count (WM1745) [%],cell count (WM3526) [%]
"COc1cc2c(Oc3ccc4[nH]c(C)cc4c3F)ncnc2cc1OCCCN1CCCC1 [cediranib] + CCCCCCCCCCCC1=C(O)C(=O)C=C(O)C1=O [Embelin] (first compound 2 µM, partner dose 6 µM)",86.5,85.1,65.4,86.7,77.5,78.6,93.2,81.4,74.7,75.2,91.2,93.1,118,111,88.2,89,117,97.8,64.4,86.6
"CCCCCCCCc1ccc(CCC(N)(CO)CO)cc1 [fingolimod] + Nc1cccc2c1CN(C1CCC(=O)NC1=O)C2=O [lenalidomide] (first compound 10 µM, partner dose 5 µM)",33,74,29.4,0.193,31.9,53.5,67.3,38.9,21.5,72.5,4.04,0.5,10.6,97.2,79.9,20.6,51.3,59.3,12.4,62.3
"Cc1ccc(NC(=O)c2cccc(N(C)C)c2)cc1NC(=O)c1ccc(O)cc1 + Cc1cc([N+](=O)[O-])ccc1NS(=O)(=O)c1cc(Cl)ccc1Cl [FH535] (first compound 10 µM, partner dose 5 µM)",43,60.2,58.2,74.2,86.6,53.8,71.6,74.9,75.5,49.2,74.1,80.1,84.2,76.5,54.4,90.5,75.1,87.4,83.8,85.2
"CCc1ccc(CCOc2ccc(CC3SC(=O)NC3=O)cc2)nc1 (stereo not given) [pioglitazone] + CCN(CC)CCCCNc1ncc2cc(-c3cc(OC)cc(OC)c3)c(NC(=O)NC(C)(C)C)nc2n1 [PD173074] (first compound 10 µM, partner dose 0.5 µM)",103,89.4,99.2,88.1,95.3,97.3,93.3,96.8,92.5,100,66.7,89.4,99.6,96.7,98.2,96.4,93.7,85.4,83.1,82.7
"NC(=O)c1ccc(N(C(N)=O)c2c(F)cccc2F)nc1-c1ccc(F)cc1F + CCN(CC)CCNC(=O)c1c(C)[nH]c(/C=C2\C(=O)Nc3ccc(F)cc32)c1C [sunitinib] (first compound 2 µM, partner dose 2 µM)",77,72,119,56.9,153,108,106,51,91.9,83.1,35.9,62.1,52.5,49.4,104,52.5,59.1,92.8,46.4,52.8
"CCCCCCCCc1ccc(CCC(N)(CO)CO)cc1 [fingolimod] + OCCn1cc(-c2cnc3nnn(Cc4ccc5ncccc5c4)c3n2)cn1 [PF04217903] (first compound 10 µM, partner dose 5 µM)",15.1,78.8,18,3.31,25.3,29.6,66.9,79,5.19,63,49.5,23.6,19.5,68.9,72.8,33,27.7,73.3,43.8,66
"CCCCCCCCc1ccc(CCC(N)(CO)CO)cc1 [fingolimod] + CS(=O)(=O)CCNCc1ccc(-c2ccc3ncnc(Nc4ccc(OCc5cccc(F)c5)c(Cl)c4)c3c2)o1 [lapatinib] (first compound 10 µM, partner dose 4 µM)",0.11,0.32,5.87,0.427,4.39,0.393,0.857,7.43,1.18,8.88,0.214,0.356,5.87,15.4,34.4,10,9.49,13,5.61,8.54
"Cc1ccc(NC(=O)c2cccc(N(C)C)c2)cc1NC(=O)c1ccc(O)cc1 + CN(C)S(=O)(=O)c1ccc2c(c1)/C(=C/c1cc3c([nH]1)CCCC3)C(=O)N2 [SU6656] (first compound 10 µM, partner dose 2 µM)",62.6,67.8,60.8,70,109,68.4,84.1,78.2,45,68.6,50.9,72.5,92.2,52.1,87.2,89.5,46.2,64.1,42.8,87.5
